Assay results from the supplement of paper PMC3334620.
Whole data set: some 33,000 sequences, median “E-score (-0.5 to 0.5)” near -0.012, cut for the highest 2% near 0.29. Some of the results follow.

What follows are sequences tested against T1, Ybr033w (UniProt P38073) (assay: PBM E-score (8-mer binding enrichment) (E-score (-0.5 to 0.5)); higher = stronger / more preferred TF binding; most listed sequences are background and not binding sites). Settings: protein concentration: 200 nM; construct: GST-full length.
T1 sequence: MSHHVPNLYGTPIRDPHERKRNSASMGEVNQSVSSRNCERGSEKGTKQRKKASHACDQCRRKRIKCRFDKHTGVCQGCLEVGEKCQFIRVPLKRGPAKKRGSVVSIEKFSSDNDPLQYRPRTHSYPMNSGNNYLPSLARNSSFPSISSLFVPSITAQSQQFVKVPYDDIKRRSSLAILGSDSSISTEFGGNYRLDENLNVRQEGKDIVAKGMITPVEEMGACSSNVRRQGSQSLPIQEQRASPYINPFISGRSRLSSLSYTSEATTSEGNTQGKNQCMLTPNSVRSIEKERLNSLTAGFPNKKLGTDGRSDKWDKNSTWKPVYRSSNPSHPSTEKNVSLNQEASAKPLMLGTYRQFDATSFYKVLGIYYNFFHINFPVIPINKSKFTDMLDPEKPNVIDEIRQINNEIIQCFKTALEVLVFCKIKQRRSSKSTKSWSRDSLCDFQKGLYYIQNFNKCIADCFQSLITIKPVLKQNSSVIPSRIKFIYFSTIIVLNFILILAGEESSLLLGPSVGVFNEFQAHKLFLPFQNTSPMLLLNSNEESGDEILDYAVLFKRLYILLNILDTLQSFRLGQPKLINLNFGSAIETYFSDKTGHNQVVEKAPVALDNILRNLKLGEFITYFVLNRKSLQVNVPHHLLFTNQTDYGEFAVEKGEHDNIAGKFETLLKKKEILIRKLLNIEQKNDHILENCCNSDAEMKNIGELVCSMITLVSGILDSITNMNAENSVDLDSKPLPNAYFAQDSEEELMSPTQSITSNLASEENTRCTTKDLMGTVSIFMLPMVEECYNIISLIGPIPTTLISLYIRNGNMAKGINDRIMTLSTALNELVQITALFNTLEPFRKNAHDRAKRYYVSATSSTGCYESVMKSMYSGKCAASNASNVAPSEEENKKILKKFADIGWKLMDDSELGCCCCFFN
Summary of the method: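 GST-tagged yeast TFs (full-length or DNA-binding domain) were made by PURExpress in vitro transcription/translation and applied at about 100-200 nM to universal all-10-mer Agilent arrays. The arrays were made double-stranded by primer extension, on fresh or once-stripped slides. Bound protein was detected with fluorescent anti-GST, and scans were normalised with masliner. Each ungapped eight-base word, pooled with its reverse complement, received an E-score (modified Wilcoxon-Mann-Whitney statistic) from the Universal PBM Analysis Suite.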

Sequence | PBM E-score
ACTGTATC | -0.101
ATACAGTC | -0.163
ATCTTCGC | 0.0516
GGAAATAA | 0.284
AAAAGGGG | -0.348
ATGGAATG | 0.0355
CCCCGGCA | -0.179
AGGCATAG | -0.0396
CATTACAG | 0.0258
TCGTAGAA | -0.0364
ATAGGTGC | -0.0848
CGAGATAA | 0.166
CGGGTTAA | 0.21
CGCCATCA | -0.285
GGGGTGTA | -0.22
CATGACGG | 0.0123
AGCACCTA | -0.132
AACAGAAC | 0.189
TAGAAGGA | -0.208
AGGCTCTG | -0.109
CACCTTAC | -0.00385
ATAGCGTG | 0.0161
ATTGATTC | 0.233
ACACATGA | 0.00873

Sequence | PBM E-score
ACCGTCTG | -0.155
AGGATAGC | 0.063
AAATGGTG | 0.22
TCAACTGA | -0.055
CCGGGCCG | -0.177
TATCCAGA | 0.158
GTCGTAAA | 0.0199
AAAACTCC | 0.029
AAAGTGTG | -0.001
CCAACACC | -0.239
TAGCAATA | 0.16
ACCAAAGA | 0.166
ATTGGGAG | -0.116
CACTACTC | 0.134
AGAACAAT | 0.209
CGTATAGC | -0.0573
TCCACACA | 0.111
AGATCGAC | -0.154
GGCATTGA | -0.0989
AAATTCGA | 0.204
GCCAAGGC | -0.279
CAGTGTCG | -0.101
CTAAAAAG | 0.185
ATGCACTG | 0.0166

Sequence | PBM E-score
AATATTTA | 0.318
AGTTACAG | 0.122
ACACGGTC | -0.208
CACGATAG | 0.134
CCAAATGA | 0.0459
GATCATTA | 0.225
CGAACGCC | -0.299
AGCGGAAT | 0.112
AGCTGGGC | -0.192
GCAGTCAA | -0.198
AGATACTG | 0.0567
ACTCTCAC | 0.0357
AATTGCGT | 0.148
CATAATAA | 0.131
AATATTGC | 0.223
CCTGAATA | 0.186
CACACAGC | -0.0511
CCTTGTCA | 0.0102
AGCGCTCA | -0.131
AAATGTGA | 0.073
AATGACGA | 0.189
GAACGCGA | 0.00319
CGAATTCG | -0.115
CGCGCACC | -0.0167

Sequence | PBM E-score
ATATGTAC | 0.0761
AGAGCAGA | -0.00101
ACCGTATA | -0.0708
CAGAGGCA | -0.234
AAGCCGCT | -0.0763
ATAGAAAA | 0.252
AGACGGAT | 0.215
AGGCGTTA | 0.0198
CAATCCAA | -0.0449
ATCGGATC | 0.0725
CTCGCCGA | -0.146
AGTATAAT | 0.225
ACGTGTAC | -0.0471
TACTACCA | 0.106
CAAAGATA | 0.132
CGTCCAGA | -0.169
GCATATCC | 0.00857
CCGGACAC | -0.248
ATCTTGCA | 0.294
GAAGCACC | -0.133
GACTACTC | -0.0315
CCGTGCAG | -0.0414
